Assay results taken from the supplement of paper PMC11125491.
± gives the standard deviation of the averaged measurements. Growth of baker's yeast expressing single-residue variants of Pneumocystis jirovecii dihydrofolate reductase in 8.8 or 44 µM methotrexate (about 75% and 90% inhibition of the wild type). Selection coefficient per generation; 0 = like wild type, above 0 = less sensitive, below 0 = more sensitive or loss of function. No active / inactive call per row; the paper calls resistant above 0.220 (8.8 µM) or 0.243 (44 µM) together with a significance test. At 44 µM about 15% of codons end with one read or none, so the lowest values are floors (replicate rank correlation 0.74; 0.94 at 8.8 µM).

B1: UniProt A0EPZ9; numbered along this chain (parent)
chain: MDWQKSLTLIVALTLSRGIGLKNDLPWKLKSDMMFFSRVTSGLLVTRSTGQMNVVLMGRKTWESLPAHSRPLKNRINVVISRQEVLDLGGGAYHARSLDDALALLSQIYDSTSKIQLNRVFVIGGGELCKAAMEHSRLNRIIATVIHNEVDCDVFFPIDFRSSQSCLPWRKQDHSVLEAWVGSKVPQGKINENGFIYEFEMWIRDI

Variants of: B1
Test: selection coefficient against synonymous wild-type codons (log2 per generation); higher = faster growth than wild type
Settings: with Saccharomyces cerevisiae carrying the variant on a plasmid
Method: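 Pooled growth of yeast carrying single-residue variants of P. jirovecii dihydrofolate reductase (own DFR1 gene intact), two passages at 30 °C, three cultures, sequenced before and after. Codons with under 15 starting reads are left out; codons of one change are averaged.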

## D159S
Methotrexate 8.8 µM
  selection coefficient against synonymous wild-type codons (log2): -0.0725 ± 0.048
Methotrexate 44 µM
  selection coefficient against synonymous wild-type codons (log2): -0.179 ± 0.1

## D159T
Methotrexate 8.8 µM
  selection coefficient against synonymous wild-type codons (log2): -0.0361 ± 0.054
Methotrexate 44 µM
  selection coefficient against synonymous wild-type codons (log2): -0.134 ± 0.13

## D159V
Methotrexate 8.8 µM
  selection coefficient against synonymous wild-type codons (log2): -0.0436 ± 0.057
Methotrexate 44 µM
  selection coefficient against synonymous wild-type codons (log2): -0.199 ± 0.15

## D159W
Methotrexate 8.8 µM
  selection coefficient against synonymous wild-type codons (log2): -0.106 ± 0.054
Methotrexate 44 µM
  selection coefficient against synonymous wild-type codons (log2): -0.211 ± 0.08

## D159Y
Methotrexate 8.8 µM
  selection coefficient against synonymous wild-type codons (log2): -0.168 ± 0.062
Methotrexate 44 µM
  selection coefficient against synonymous wild-type codons (log2): -0.0948 ± 0.056

## F160A
Methotrexate 8.8 µM
  selection coefficient against synonymous wild-type codons (log2): 0.446 ± 0.048
Methotrexate 44 µM
  selection coefficient against synonymous wild-type codons (log2): 0.439 ± 0.039

## F160C
Methotrexate 8.8 µM
  selection coefficient against synonymous wild-type codons (log2): 0.346 ± 0.032
Methotrexate 44 µM
  selection coefficient against synonymous wild-type codons (log2): 0.3438 ± 0.002

## F160D
Methotrexate 8.8 µM
  selection coefficient against synonymous wild-type codons (log2): 0.505 ± 0.031
Methotrexate 44 µM
  selection coefficient against synonymous wild-type codons (log2): 0.607 ± 0.041

## F160E
Methotrexate 8.8 µM
  selection coefficient against synonymous wild-type codons (log2): 0.503 ± 0.038
Methotrexate 44 µM
  selection coefficient against synonymous wild-type codons (log2): 0.584 ± 0.051

## F160G
Methotrexate 8.8 µM
  selection coefficient against synonymous wild-type codons (log2): 0.506 ± 0.045
Methotrexate 44 µM
  selection coefficient against synonymous wild-type codons (log2): 0.558 ± 0.03

## F160H
Methotrexate 8.8 µM
  selection coefficient against synonymous wild-type codons (log2): 0.474 ± 0.05
Methotrexate 44 µM
  selection coefficient against synonymous wild-type codons (log2): 0.555 ± 0.0066

## F160I
Methotrexate 8.8 µM
  selection coefficient against synonymous wild-type codons (log2): 0.106 ± 0.037
Methotrexate 44 µM
  selection coefficient against synonymous wild-type codons (log2): 0.0205 ± 0.086

## F160K
Methotrexate 8.8 µM
  selection coefficient against synonymous wild-type codons (log2): 0.478 ± 0.05
Methotrexate 44 µM
  selection coefficient against synonymous wild-type codons (log2): 0.518 ± 0.059

## F160L
Methotrexate 8.8 µM
  selection coefficient against synonymous wild-type codons (log2): 0.107 ± 0.047
Methotrexate 44 µM
  selection coefficient against synonymous wild-type codons (log2): 0.0286 ± 0.1

## F160M
Methotrexate 8.8 µM
  selection coefficient against synonymous wild-type codons (log2): 0.184 ± 0.051
Methotrexate 44 µM
  selection coefficient against synonymous wild-type codons (log2): 0.125 ± 0.053

## F160N
Methotrexate 8.8 µM
  selection coefficient against synonymous wild-type codons (log2): 0.503 ± 0.036
Methotrexate 44 µM
  selection coefficient against synonymous wild-type codons (log2): 0.533 ± 0.03

## F160P
Methotrexate 8.8 µM
  selection coefficient against synonymous wild-type codons (log2): 0.281 ± 0.089
Methotrexate 44 µM
  selection coefficient against synonymous wild-type codons (log2): 0.247 ± 0.065

## F160Q
Methotrexate 8.8 µM
  selection coefficient against synonymous wild-type codons (log2): 0.483 ± 0.0071
Methotrexate 44 µM
  selection coefficient against synonymous wild-type codons (log2): 0.511 ± 0.023

## F160R
Methotrexate 8.8 µM
  selection coefficient against synonymous wild-type codons (log2): 0.428 ± 0.044
Methotrexate 44 µM
  selection coefficient against synonymous wild-type codons (log2): 0.444 ± 0.037

## F160S
Methotrexate 8.8 µM
  selection coefficient against synonymous wild-type codons (log2): 0.459 ± 0.042
Methotrexate 44 µM
  selection coefficient against synonymous wild-type codons (log2): 0.481 ± 0.029

## F160T
Methotrexate 8.8 µM
  selection coefficient against synonymous wild-type codons (log2): 0.425 ± 0.049
Methotrexate 44 µM
  selection coefficient against synonymous wild-type codons (log2): 0.444 ± 0.032

## F160V
Methotrexate 8.8 µM
  selection coefficient against synonymous wild-type codons (log2): 0.181 ± 0.055
Methotrexate 44 µM
  selection coefficient against synonymous wild-type codons (log2): 0.215 ± 0.14

## F160W
Methotrexate 8.8 µM
  selection coefficient against synonymous wild-type codons (log2): -0.00957 ± 0.018
Methotrexate 44 µM
  selection coefficient against synonymous wild-type codons (log2): -0.101 ± 0.13

## F160Y
Methotrexate 8.8 µM
  selection coefficient against synonymous wild-type codons (log2): 0.116 ± 0.05
Methotrexate 44 µM
  selection coefficient against synonymous wild-type codons (log2): -0.0166 ± 0.053

## R161A
Methotrexate 8.8 µM
  selection coefficient against synonymous wild-type codons (log2): 0.158 ± 0.043
Methotrexate 44 µM
  selection coefficient against synonymous wild-type codons (log2): 0.0737 ± 0.11

## R161C
Methotrexate 8.8 µM
  selection coefficient against synonymous wild-type codons (log2): 0.055 ± 0.072
Methotrexate 44 µM
  selection coefficient against synonymous wild-type codons (log2): 0.0141 ± 0.045

## R161D
Methotrexate 8.8 µM
  selection coefficient against synonymous wild-type codons (log2): 0.37 ± 0.03
Methotrexate 44 µM
  selection coefficient against synonymous wild-type codons (log2): 0.369 ± 0.061

## R161E
Methotrexate 8.8 µM
  selection coefficient against synonymous wild-type codons (log2): 0.358 ± 0.025
Methotrexate 44 µM
  selection coefficient against synonymous wild-type codons (log2): 0.334 ± 0.0067

## R161G
Methotrexate 8.8 µM
  selection coefficient against synonymous wild-type codons (log2): 0.19 ± 0.093
Methotrexate 44 µM
  selection coefficient against synonymous wild-type codons (log2): 0.207 ± 0.052

## R161H
Methotrexate 8.8 µM
  selection coefficient against synonymous wild-type codons (log2): 0.0651 ± 0.033
Methotrexate 44 µM
  selection coefficient against synonymous wild-type codons (log2): 0.0239 ± 0.12

## R161I
Methotrexate 8.8 µM
  selection coefficient against synonymous wild-type codons (log2): -0.00388 ± 0.065
Methotrexate 44 µM
  selection coefficient against synonymous wild-type codons (log2): -0.0613 ± 0.079

## R161K
Methotrexate 8.8 µM
  selection coefficient against synonymous wild-type codons (log2): 0.143 ± 0.041
Methotrexate 44 µM
  selection coefficient against synonymous wild-type codons (log2): 0.0842 ± 0.042

## R161L
Methotrexate 8.8 µM
  selection coefficient against synonymous wild-type codons (log2): -0.0268 ± 0.044
Methotrexate 44 µM
  selection coefficient against synonymous wild-type codons (log2): -0.137 ± 0.12

## R161M
Methotrexate 8.8 µM
  selection coefficient against synonymous wild-type codons (log2): -0.0449 ± 0.022
Methotrexate 44 µM
  selection coefficient against synonymous wild-type codons (log2): -0.145 ± 0.075

## R161N
Methotrexate 8.8 µM
  selection coefficient against synonymous wild-type codons (log2): 0.217 ± 0.027
Methotrexate 44 µM
  selection coefficient against synonymous wild-type codons (log2): 0.18 ± 0.044

## R161P
Methotrexate 8.8 µM
  selection coefficient against synonymous wild-type codons (log2): 0.293 ± 0.034
Methotrexate 44 µM
  selection coefficient against synonymous wild-type codons (log2): 0.226 ± 0.023

## R161Q
Methotrexate 8.8 µM
  selection coefficient against synonymous wild-type codons (log2): 0.128 ± 0.05
Methotrexate 44 µM
  selection coefficient against synonymous wild-type codons (log2): 0.077 ± 0.049

## R161S
Methotrexate 8.8 µM
  selection coefficient against synonymous wild-type codons (log2): 0.171 ± 0.07
Methotrexate 44 µM
  selection coefficient against synonymous wild-type codons (log2): 0.106 ± 0.052

## R161T
Methotrexate 8.8 µM
  selection coefficient against synonymous wild-type codons (log2): 0.135 ± 0.045
Methotrexate 44 µM
  selection coefficient against synonymous wild-type codons (log2): 0.0874 ± 0.037

## R161V
Methotrexate 8.8 µM
  selection coefficient against synonymous wild-type codons (log2): 0.103 ± 0.03
Methotrexate 44 µM
  selection coefficient against synonymous wild-type codons (log2): 0.0114 ± 0.12

## R161W
Methotrexate 8.8 µM
  selection coefficient against synonymous wild-type codons (log2): -0.0765 ± 0.034
Methotrexate 44 µM
  selection coefficient against synonymous wild-type codons (log2): -0.173 ± 0.03

## R161Y
Methotrexate 8.8 µM
  selection coefficient against synonymous wild-type codons (log2): -0.00342 ± 0.031
Methotrexate 44 µM
  selection coefficient against synonymous wild-type codons (log2): -0.123 ± 0.11

## S162A
Methotrexate 8.8 µM
  selection coefficient against synonymous wild-type codons (log2): -0.0203 ± 0.045
Methotrexate 44 µM
  selection coefficient against synonymous wild-type codons (log2): -0.0748 ± 0.17

## S162C
Methotrexate 8.8 µM
  selection coefficient against synonymous wild-type codons (log2): -0.139 ± 0.074
Methotrexate 44 µM
  selection coefficient against synonymous wild-type codons (log2): -0.136 ± 0.12

## S162D
Methotrexate 8.8 µM
  selection coefficient against synonymous wild-type codons (log2): 0.0357 ± 0.035
Methotrexate 44 µM
  selection coefficient against synonymous wild-type codons (log2): -0.0936 ± 0.1

## S162E
Methotrexate 8.8 µM
  selection coefficient against synonymous wild-type codons (log2): 0.0277 ± 0.012
Methotrexate 44 µM
  selection coefficient against synonymous wild-type codons (log2): 0.00277 ± 0.09

## S162F
Methotrexate 8.8 µM
  selection coefficient against synonymous wild-type codons (log2): -0.038 ± 0.022
Methotrexate 44 µM
  selection coefficient against synonymous wild-type codons (log2): -0.15 ± 0.12

## S162G
Methotrexate 8.8 µM
  selection coefficient against synonymous wild-type codons (log2): 0.000451 ± 0.055
Methotrexate 44 µM
  selection coefficient against synonymous wild-type codons (log2): -0.0162 ± 0.085

## S162H
Methotrexate 8.8 µM
  selection coefficient against synonymous wild-type codons (log2): -0.0517 ± 0.069
Methotrexate 44 µM
  selection coefficient against synonymous wild-type codons (log2): -0.228 ± 0.11

## S162I
Methotrexate 8.8 µM
  selection coefficient against synonymous wild-type codons (log2): -0.0536 ± 0.038
Methotrexate 44 µM
  selection coefficient against synonymous wild-type codons (log2): 0.00895 ± 0.12

## S162K
Methotrexate 8.8 µM
  selection coefficient against synonymous wild-type codons (log2): -0.017 ± 0.045
Methotrexate 44 µM
  selection coefficient against synonymous wild-type codons (log2): -0.111 ± 0.043

## S162L
Methotrexate 8.8 µM
  selection coefficient against synonymous wild-type codons (log2): -0.0135 ± 0.063
Methotrexate 44 µM
  selection coefficient against synonymous wild-type codons (log2): -0.0564 ± 0.11

## S162M
Methotrexate 8.8 µM
  selection coefficient against synonymous wild-type codons (log2): -0.0481 ± 0.042
Methotrexate 44 µM
  selection coefficient against synonymous wild-type codons (log2): -0.174 ± 0.14

## S162N
Methotrexate 8.8 µM
  selection coefficient against synonymous wild-type codons (log2): -0.00947 ± 0.034
Methotrexate 44 µM
  selection coefficient against synonymous wild-type codons (log2): -0.112 ± 0.17

## S162P
Methotrexate 8.8 µM
  selection coefficient against synonymous wild-type codons (log2): 0.0938 ± 0.064
Methotrexate 44 µM
  selection coefficient against synonymous wild-type codons (log2): 0.0621 ± 0.095

## S162Q
Methotrexate 8.8 µM
  selection coefficient against synonymous wild-type codons (log2): -0.0688 ± 0.026
Methotrexate 44 µM
  selection coefficient against synonymous wild-type codons (log2): -0.169 ± 0.18

## S162R
Methotrexate 8.8 µM
  selection coefficient against synonymous wild-type codons (log2): -0.0669 ± 0.039
Methotrexate 44 µM
  selection coefficient against synonymous wild-type codons (log2): -0.172 ± 0.12

## S162T
Methotrexate 8.8 µM
  selection coefficient against synonymous wild-type codons (log2): -0.0473 ± 0.035
Methotrexate 44 µM
  selection coefficient against synonymous wild-type codons (log2): -0.0883 ± 0.074
